# Article PMC4336329 (PLoS ONE, 2015)
# Hit rate of the full screen: of about 310,000 compounds, about 2,200 (0.71%) showed an effect of 50% or more. The effect is printed as a negative number. Some of the results follow.
# Molecular target: human ether-à-go-go-related gene (hERG) potassium channel (human, UniProt Q12809)
# Test: primary screen, population patch clamp on CHO cells stably expressing hERG
# human ether-à-go-go-related gene (hERG) potassium channel, sequence (Q12809 whole entry, looked up): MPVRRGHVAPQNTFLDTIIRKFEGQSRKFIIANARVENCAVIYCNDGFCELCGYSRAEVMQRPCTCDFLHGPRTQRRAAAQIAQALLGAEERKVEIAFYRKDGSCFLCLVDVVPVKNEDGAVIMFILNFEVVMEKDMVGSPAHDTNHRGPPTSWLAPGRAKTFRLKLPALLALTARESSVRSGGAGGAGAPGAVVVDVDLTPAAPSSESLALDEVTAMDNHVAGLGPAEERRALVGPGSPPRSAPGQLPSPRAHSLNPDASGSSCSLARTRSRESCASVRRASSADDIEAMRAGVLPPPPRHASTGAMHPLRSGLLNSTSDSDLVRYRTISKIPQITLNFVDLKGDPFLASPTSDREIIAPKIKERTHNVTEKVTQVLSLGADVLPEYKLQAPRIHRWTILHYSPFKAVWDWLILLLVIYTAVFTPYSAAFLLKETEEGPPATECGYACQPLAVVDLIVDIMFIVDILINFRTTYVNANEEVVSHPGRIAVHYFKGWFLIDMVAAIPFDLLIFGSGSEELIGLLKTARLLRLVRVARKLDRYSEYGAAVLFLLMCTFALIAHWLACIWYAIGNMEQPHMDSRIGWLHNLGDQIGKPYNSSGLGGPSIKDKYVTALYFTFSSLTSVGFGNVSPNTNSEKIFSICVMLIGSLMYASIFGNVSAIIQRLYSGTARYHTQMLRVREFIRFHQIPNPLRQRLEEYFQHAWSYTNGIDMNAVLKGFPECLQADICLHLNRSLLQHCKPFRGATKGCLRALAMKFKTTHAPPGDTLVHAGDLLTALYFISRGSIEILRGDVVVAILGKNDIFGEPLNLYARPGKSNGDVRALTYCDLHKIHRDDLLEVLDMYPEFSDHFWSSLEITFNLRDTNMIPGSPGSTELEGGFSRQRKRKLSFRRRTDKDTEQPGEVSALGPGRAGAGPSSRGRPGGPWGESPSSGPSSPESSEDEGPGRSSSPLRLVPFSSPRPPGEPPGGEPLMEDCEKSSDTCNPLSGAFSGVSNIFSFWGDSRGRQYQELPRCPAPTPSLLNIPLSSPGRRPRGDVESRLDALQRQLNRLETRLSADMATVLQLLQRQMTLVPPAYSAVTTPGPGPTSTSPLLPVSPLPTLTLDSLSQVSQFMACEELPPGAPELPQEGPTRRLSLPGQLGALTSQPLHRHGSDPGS
row,Structure (SMILES),"hERG current change (%, negative = inhibition) at 1uM [%]"
1,COc1ccc(NC(C)=O)cc1NC(C)C(=O)Nc1ccc(F)c(F)c1F (stereo not shown),-0.302
2,COc1ccccc1NC(=O)c1ccccc1S(=O)(=O)c1ccccc1[N+](=O)[O-],17.4
3,CCCN(CCC)C(=O)Cn1c(=O)n(CCC(=O)NCCc2ccccc2)c(=O)c2ccccc21,-7.65
4,Cc1cc(C)n(-c2n[nH]c(C)c2[N+](=O)[O-])n1,3.56
5,Cc1ccc(OCC(=O)NCCc2c[nH]c3ccccc23)cc1,9.53
6,O=C(Nc1ccc(N2CCOCC2)cc1)c1ccccc1SCC(=O)N1CCCC1,10.9
7,O=S(=O)(c1ccccc1)N1CCN(C2CCCCCCC2)CC1,-7.17
8,COc1ccc(OC)c(NC(=O)CSc2nnnn2-c2ccc3c(c2)OCO3)c1,-1.68
9,O=C(NCC1COc2ccccc2O1)c1ccc(NC(=O)c2ccco2)cc1 (stereo not shown),-1.42
10,Cc1ccc(-c2nn(-c3ccccc3)cc2C(=O)N2CCOCC2)cc1,9.79
11,Cc1cc(C)c(NC(=S)NC(=O)c2ccc(-c3ccccc3)cc2)c(C)c1,15.3
12,Cn1c(-[n+]2c(-c3ccccc3)cc(-c3ccccc3)cc2-c2ccccc2)nc2c([N+](=O)[O-])cccc21.[I-],-6.1
13,O=C(/C=C/c1cccc([N+](=O)[O-])c1)Nc1cccc(NC(=O)c2ccco2)c1,6.17
14,COc1cc(C(=O)n2nc(C)cc2C)cc(OC)c1OC,16.5
15,COc1ccc(-n2nnnc2SCC(=O)NC2CCCC2)cc1OC,15.2
16,CCCC(=O)Nc1c(C(=O)OCC)oc2ccccc12,10.2
17,CCN(CCCNC(=O)CC(C(=O)N1CCc2ccccc21)n1ccnc1)c1cccc(C)c1 (stereo not shown),-37.4
18,CCN(c1ccccc1)S(=O)(=O)c1ccc(OC)c(NS(=O)(=O)c2cccs2)c1,10.2
19,CC(C)(C)CC(C)(C)NC(=O)CSCC(=O)Nc1ccc2ccccc2c1,1.88
20,COC(=O)c1ccc(S(=O)(=O)N2CCCCCC2)n1C,15.3
21,Cc1ccc2c(CC(=O)NNC(=O)c3ccncc3)coc2c1,7.99
22,COc1ccc(S(=O)(=O)N2CCOC2CNC(=O)C(=O)NCCc2ccccc2OC)cc1 (stereo not shown),9.54

row,Structure (SMILES),"hERG current change (%, negative = inhibition) at 1uM [%]"
1,CCCCn1c(SCC(=O)N(CC)C2CCS(=O)(=O)C2)nnc1C(CC)N(C)C (stereo not shown),11.7
2,Clc1ccc(OCCOCCNCc2ccccc2)cc1Cl.O=C(O)C(=O)O,14.9
3,CC(=O)c1ccc(S(=O)(=O)NCc2ccc(C(=O)N(C)CC(=O)Nc3cccc(F)c3)cc2)cc1,13.9
4,O=C(N/N=C\c1cccc(Cl)c1)c1n[nH]c2c1CCCC2,11
5,O=C(COC(=O)c1cccc(NC(=O)c2ccco2)c1)c1ccc(Br)cc1,2.74
6,O=C(C1CCC(CNS(=O)(=O)c2ccc(F)cc2)CC1)N1CCOCC1 (stereo not shown),9.02
7,O=C(CCS(=O)(=O)Cc1ccccc1)N1CCN(c2ccc([N+](=O)[O-])cc2)CC1,-81
8,O=C(O)c1c2c(nc3ccc(S(=O)(=O)N4CCC(C(=O)NC5CCCC5)CC4)cc13)CCCCC2,7.31
9,O=C(COc1cccnc1[N+](=O)[O-])c1c[nH]c2ccccc12,11
10,CCc1ccc2[nH]cc(C(=O)N3CCCCCC3)c(=O)c2c1,10.1
11,Cc1ccc(-c2csc(N3CCC(C(N)=O)(N4CCCCC4)CC3)n2)cc1,6.23
12,COc1cccc(N2CCN(C(=O)c3ccc(=O)oc3)CC2C)c1 (stereo not shown),-31
13,CC(C)(C)n1nnnc1C(c1cccnc1)N1CCN(C2CCCCC2)CC1 (stereo not shown),3.91
14,COc1ccc(S(=O)(=O)NC(C)C(=O)NCCN2CCOCC2)cc1Cl (stereo not shown),13
15,O=C(Nc1cccc(Cl)c1)c1cccnn1,20.6
16,Cc1cc(O)cc(O)c1C(=O)Cc1cscn1,6.33
17,COc1ccc(N(CC(=O)NC(C)(C)C)S(=O)(=O)c2ccccc2)cc1OC,9.89
18,O=C(Nc1nccs1)NC1CCCCC1,-16.2
19,Fc1ccccc1NC(=S)N1CCCCC1,9.42
20,COc1ccc(C(CNC(=O)c2cccc(S(=O)(=O)N3CCOCC3)c2)N2CCCC2)cc1 (stereo not shown),-4.47
21,CCCn1nc(C(=O)Nc2ccc(S(=O)(=O)Nc3nccs3)cc2)c2ccccc2c1=O,12.6
